Molecules are shown by their SMILES. The campaign covered roughly 150,000 compounds. About 540 (0.36%) showed an effect of 50% or more. Some of the results follow.

The assay relates to Plasmodium falciparum. Put plainly: Primary screen in NF54 nanoGlo assay, in single point, at 2uM, 72h; a lower Z score goes with more inhibition. The format is functional, Erythrocyte. The note with it: timepoint 72 hour.
A word on the % Inhibition: it is the change of the read-out against control, counted positive when it falls. For `CCCCn1c(C(=O)NCC(C)C)cc2cc(NC(=O)c3ccccc3Cl)ccc21`, the “% Inhibition” value was -3% and the Z score is on record as 0.4.

For the molecule `OC(CC1CCCCCN1Cc1cnc2ccccc2n1)c1cccs1` (stereo not drawn), the “% Inhibition” value is listed as -9% and the Z score was found to be 1.62.

As for `Cc1nc(-c2ccc(C)c(N3CCN(C(=O)Nc4ccccc4C(F)(F)F)CC3)c2)no1`, the “% Inhibition” value is -11% and the Z score was determined as 1.43.

In the case of `CCCCN(Cc1ccccc1)c1ccc(NS(=O)(=O)c2cccc(C)c2)cc1C(=O)O`, the “% Inhibition” value is -15% and the Z score came out at 1.44.

For the molecule `C[C@@H](c1ccon1)N(C)C(=O)c1[nH]nc2c1CCC2`, the “% Inhibition” value was -8% and the Z score is reported as 1.25.

As to `Cc1nn(C(C)(C)C)cc1[C@H](C)NC(=O)c1c[nH]c(C(F)(F)F)c1`, the “% Inhibition” value is -10% and the Z score worked out at 1.63.

As to `Cc1nnc(NC2CC3CCC2O3)c(C#N)c1C` (stereo not drawn), the “% Inhibition” value is -6% and the Z score stood at 0.95.

For `CCC1=NC(c2ccccc2)(c2ccccc2)c2ccccc2O1`, the “% Inhibition” value came to 8% and the Z score is reported as -1.58.

In the case of `O=C(O)CCN1C(=O)c2ccc(NC(=O)Cc3ccc(Cl)cc3)cc2C1=O`, the “% Inhibition” value was 1% and the Z score is -0.08.

For `CN(CCO)C(=O)COc1ccc(-c2ccccc2)cc1CN1CCC(c2nncn2C)CC1`, the “% Inhibition” value is -3% and the Z score was found to be 0.37.

On to `C=C(C)CN1CCN(CCn2cnnc2C)CC1`, for which the “% Inhibition” value is reported as -1% and the Z score was determined as 0.13.

On to `CCCn1cc(CCNS(=O)(=O)CCC)c2cccnc21`, for which the “% Inhibition” value was -11% and the Z score was 1.25.

Take `Cc1cc(C)nc(N[C@H]2CN(CC(=O)N(C)C)C[C@@H]2C(C)C)n1`: the “% Inhibition” value is 1% and the Z score is -0.12.

Take `CCn1cccc1-c1nc(C)c(C(=O)NCCc2ccc(OC)c(OC)c2)s1`: the “% Inhibition” value is -4% and the Z score came to 0.64.

With `O=C(C1=CCCCO1)N1CCCCCC1`, the “% Inhibition” value is -8% and the Z score is 0.82.

For `CC(C)Cc1nc(N2CCN(C(=O)c3ccccc3F)CC2)c2c(-c3cccc(Oc4ccccc4)c3)noc2n1`, the “% Inhibition” value is listed as -9% and the Z score is 1.76.

Take `CCCN1CC2(CCN(C(=O)c3cccc(C(C)=O)c3)CC2)C[C@H]1C(=O)O`: the “% Inhibition” value is recorded as -10% and the Z score was found to be 1.66.

As to `O=C(O)[C@H]1CCN(c2nc(C3CC3)nc3[nH]ccc23)C1`, the “% Inhibition” value was -10% and the Z score stood at 1.99.

Take `Cc1ncc(CN2CCO[C@@]3(COCCN(C(=O)C(C)C)C3)C2)n1C`: the “% Inhibition” value is 4% and the Z score is listed as -0.8.

As to `O=C(O)CN(Cc1ccccc1Br)CC1CC2CC2C1` (stereo not drawn), the “% Inhibition” value was -1% and the Z score is listed as 0.21.

Turning to `COc1ccc(NC(C)=O)cc1NC(=O)CCC(=O)c1ccc2c(c1)OCCCO2`, the “% Inhibition” value turned out to be 6% and the Z score is -1.04.

`COc1ccc(CNC2CCCC(O)CCC2)cc1` (stereo not drawn): the “% Inhibition” value is listed as -10% and the Z score came out at 1.05.

For the molecule `COc1ccc(C(=O)NC(C)(C)C(C)(C)O)c(O)c1`, the “% Inhibition” value was -7% and the Z score is 1.06.

With `Cc1cnn(C2CCN(S(=O)(=O)CCC3CCCC3)CC2)c1`, the “% Inhibition” value is -2% and the Z score came to 0.43.

With `Cc1nc(C(=O)N(C)Cc2sccc2C)c(C)[nH]1`, the “% Inhibition” value is listed as 6% and the Z score is listed as -0.88.

On to `Cc1ccc(C(=O)N(C)C)cc1N1C(=O)[C@H]2CCCN2C1=O`, for which the “% Inhibition” value is listed as 1% and the Z score was -0.1.

Turning to `Cc1cc(N(C)C)ccc1NC(=O)C1CN(Cc2ccccc2)CC1C(F)(F)F` (stereo not drawn), the “% Inhibition” value is on record as -5% and the Z score is given as 0.85.

Regarding `Cc1nnsc1C(=O)N[C@@H](C)c1ccn(C)n1`, the “% Inhibition” value worked out at 0% and the Z score was -0.07.

Consider `O=C(NC1CC(c2cccc(Cl)c2)C1)N1CCO[C@H](c2ccco2)C1` (stereo partly drawn), for which the “% Inhibition” value is 4% and the Z score is given as -0.46.

With `Cc1oc(-c2ccc(Cl)cc2)nc1C(=O)N1CCCN(C)c2nc3ccccc3nc21`, the “% Inhibition” value is -3% and the Z score was determined as 0.38.

Turning to `CN(Cc1cccc(OC(F)(F)F)c1)Cc1nnc[nH]1`, the “% Inhibition” value is given as -4% and the Z score is 0.62.

Take `Cc1cc(=O)[nH]c(NCCNC(=O)Cn2cnc3ccccc3c2=O)n1`: the “% Inhibition” value was determined as 0% and the Z score was -0.02.

For the molecule `CS(=O)(=O)c1ccnc(NC(=O)NC2CC3CCC(C3)C2)c1` (stereo not drawn), the “% Inhibition” value is listed as -7% and the Z score is listed as 1.35.

In the case of `COc1cc(NC(=O)c2cc(-c3cccc4ccccc34)[nH]n2)cc(OC)c1OC`, the “% Inhibition” value came out at 41% and the Z score was -4.65.

In the case of `CC[C@H](C)n1ncc(C(=O)Nc2cncnc2N2CCCC2)c1C`, the “% Inhibition” value is -10% and the Z score was determined as 1.25.

With `COCc1n[nH]c(C2(N3CCCC3)CCCC2)n1`, the “% Inhibition” value was -2% and the Z score is 0.38.

`Cc1nnsc1Cn1cnc(C(C)(C)C)c1`: the “% Inhibition” value is reported as -4% and the Z score was determined as 0.81.

For `COc1ncc(Cl)c(N(C)CCN2CCOC(C)(C)C2)n1`, the “% Inhibition” value is given as 3% and the Z score is recorded as -0.26.

For `O=S(=O)(CCC1CCOCC1)N[C@H](c1cccnc1)C1CC1`, the “% Inhibition” value stood at 32% and the Z score is given as -3.57.

In the case of `Cc1cc(=O)[nH]c(NCCNC(=O)C2(c3ccc(Cl)cc3)CCC2)n1`, the “% Inhibition” value is 4% and the Z score is reported as -0.65.

On to `Cc1c(Cl)cccc1N1C(=O)C[C@H](N2CCN(CCOc3ccccc3)CC2)C1=O`, for which the “% Inhibition” value is reported as -6% and the Z score was determined as 0.5.

On to `Cc1nc2ccccc2c(NC(=O)C2=COCCO2)c1C(C)C`, for which the “% Inhibition” value is -3% and the Z score was 0.32.

In the case of `COCCN1CCn2cc(C(=O)NCCN3CCN(c4ccccc4)CC3)nc2C1=O`, the “% Inhibition” value worked out at 2% and the Z score is on record as -0.36.

Turning to `CN(Cc1cc[nH]n1)S(=O)(=O)c1cc(F)c(F)cc1F`, the “% Inhibition” value is reported as -1% and the Z score is listed as 0.11.

The values are drawn from ChEMBL document CHEMBL4888484, “Replenishing the malaria drug discovery pipeline: Screening and hit evaluation of the MMV Hit Generation Library 1 (HGL1) against asexual blood stage Plasmodium falciparum ,using a nano luciferase reporter read-out” (2022).
